Results as given in PubChem BioAssay AID504832 (National Center for Advancing Translational Sciences (NCATS), 2011).
Out of some 310,000 compounds screened, about 18,000 (5.8%) were called active. Inconclusive results, whose numbers are uncertain, are shown with a selection of clear calls. The call rests on the fitted dose curve; in most records, active means well fitted inhibition curve with a large enough effect; inconclusive means small, poorly fitted or top-dose-only effect, or another doubt; inactive means no such curve, though single readings can be large or run the other way. Potencies of inconclusive entries are left out as doubtful fits.

Assay: Primary qHTS for delayed death inhibitors of the malarial parasite plastid, 48 hour incubation
Conditions: P. falciparum luciferase growth in erythrocytes; series mostly up to 28.7 µM; activity change, negative = inhibition: at the top concentration
How it was run: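 Luciferase-expressing P. falciparum in infected erythrocytes (2% hematocrit, 0.1% parasitemia final) in RPMI 1640/0.5% Albumax were exposed to compound for 48 hours at 37 C, 5% CO2; growth read as luminescence.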
On the % scale 0 is the no-effect control and ±100 the full control effect; potency means the concentration at half of the fitted maximal effect; tags describe the fitted curve by direction and shape.

Row | SMILES | Potency | activity change, negative = inhibition
1 | O=C(/C=C/c1cccs1)NC(=S)NNC(=O)c1ccccc1O | inconclusive [inhibitor, single point] | –
2 | Cc1ccc(C(=O)N/C(=C\c2ccco2)C(=O)NCCN2CCOCC2)cc1C | – | inactive: 8.81%
3 | O=C(COc1ccc(Cl)cc1)N(Cc1ccccc1)c1nc(-c2ccccc2)cs1 | active: 1.47 µM | –
4 | Nc1nc2ccccc2cc1S(=O)(=O)c1ccccc1 | inconclusive [inhibitor, full curve, poor fit] | –
5 | Cn1nnnc1SCC(=O)N1CCN(C(c2ccccc2)c2ccccc2)CC1 | active: 9.28 µM | –
6 | COc1cc(OC)cc(C(=O)NCC(=O)NCC(c2ccco2)N2CCCCC2)c1 (stereo not drawn) | inconclusive [inhibitor, single point] | –
7 | NC(=S)N/N=C/c1ccc(-c2ccc(SC(F)F)cc2)o1 | inconclusive [inhibitor, partial curve] | –
8 | CCN1CCN(C(=O)c2ccc(Sc3ccccc3Cl)c([N+](=O)[O-])c2)CC1 | – | inactive: -2.09%
9 | COc1ccc(S(=O)(=O)N(C)C)cc1NC(=O)CSc1ncccn1 | inconclusive [inhibitor, single point] | –
10 | O=C(Cc1ccc(Cl)cc1)N/N=C/c1cccc(O)c1 | – | inactive: 31.9%
11 | NC1=NC2(CCCCC2)N(c2ccc(F)cc2)C(N)=N1 | active: 13.1 µM | –
12 | COc1ccc(-c2csc3ncnc(N4CCN(C(=O)c5ccco5)CC4)c23)cc1 | inconclusive [inhibitor, single point] | –
13 | CCC(=O)Nc1c(S(=O)(=O)c2ccc(C)cc2)c2nc3ccccc3nc2n1C(C)c1ccccc1 (stereo not drawn) | inconclusive [inhibitor, full curve, poor fit] | –
14 | COc1cc2c(cc1OC)CN(C(=O)c1cccs1)CC2 | active: 0.657 µM | –
15 | Cc1ccc(C(CNS(=O)(=O)c2ccc([N+](=O)[O-])cc2)N2CCN(C)CC2)cc1 (stereo not drawn) | inconclusive [inhibitor, single point] | –
16 | COC(=O)C1=C(C)NC(=S)NC1c1ccc(-c2cc(Cl)ccc2Cl)o1 (stereo not drawn) | active: 11.7 µM | –
17 | CCOC(=O)C1CCN(c2c(N3CCCCCC3)c(=O)c2=O)CC1 | – | inactive: 11.6%
18 | Cc1c(CC(=O)N2CCN(C(=O)C3COc4ccccc4O3)CC2)c(=O)oc2cc(O)cc(O)c12 (stereo not drawn) | inconclusive [inhibitor, single point] | –
19 | C/C(=N\NC(=O)CSc1nc(C)cc(C)n1)c1ccc([N+](=O)[O-])cc1 | – | inactive: 1.98%
20 | O=C(COc1ccc(Cl)cc1)N1CCN(c2ccc([N+](=O)[O-])c(N3CCCCC3)c2)CC1 | inconclusive [inhibitor, single point] | –
21 | COc1ccc(CCNc2oc(Cc3cccc4ccccc34)nc2C#N)cc1OC | active: 6.57 µM | –
22 | Cc1ccccc1N1CCN(S(=O)(=O)CC23CCC(CC2=O)C3(C)C)CC1 (stereo not drawn) | inconclusive [inhibitor, full curve] | –

Row | SMILES | Potency | activity change, negative = inhibition
23 | Cc1nc(N2CCN(c3ccccn3)CC2)c2c(C)c(C(=O)N3CCN(c4ccccc4F)CC3)sc2n1 | active: 8.28 µM | –
24 | CC1CC1c1ccc(/C=C(\C#N)C(=O)Nc2ccc(Cl)cc2Cl)o1 (stereo not drawn) | – | inactive: 3.78%
25 | COc1cccc(N=CC=C2OC(C)(C)C(C)(C)O2)c1 | inconclusive [inhibitor, single point] | –
26 | Cc1cc(C(=O)OCC(=O)c2c(N)n(C)c(=O)n(C)c2=O)c(C)n1-c1ccccc1 | inconclusive [inhibitor, single point] | –
27 | CCCc1nc(NCc2ccccn2)c2nnn(Cc3ccccc3F)c2n1 | inconclusive [inhibitor, partial curve, poor fit] | –
28 | CCCNC(=O)c1c(CSc2ccccc2)noc1C(=O)NCc1ccccc1 | inconclusive [inhibitor, single point] | –
29 | CS(=O)(=O)c1ccc2nc(NC(=O)c3cccc([N+](=O)[O-])c3)sc2c1 | – | inactive: 35.1%
30 | O=C(Oc1c(Cl)cc(Cl)c2cccnc12)c1cccs1 | inconclusive [inhibitor, partial curve, poor fit] | –
31 | COc1ccc(C(C(=O)NC2CCCCC2)N(C(=O)c2sc(C)nc2C)c2ccc(C(C)=O)cc2)cc1 (stereo not drawn) | inconclusive [inhibitor, partial curve, poor fit] | –
32 | CCOc1ccccc1NC(=O)c1c(NC(=O)CNCc2ccco2)sc2c1CCC2 | inconclusive [inhibitor, partial curve] | –
33 | CCOc1ccc(C2=CSC3=NCCN23)cc1Cl | inconclusive [inhibitor, single point] | –
34 | CCN(CC)S(=O)(=O)c1ccc2c(c1)c(=O)c(C(=O)NCCN(C)CCc1ccccc1)cn2C | inconclusive [inhibitor, single point] | –
35 | CCn1ncc(Cl)c1C(=O)Nc1ccncc1 | inconclusive [inhibitor, partial curve, poor fit] | –
36 | COc1ccc(-n2cc(C(=O)O)c(=O)cc2C)cc1 | – | inactive: 18.9%
37 | O=C(/C=C/c1ccc(F)cc1)NC(=S)NC1CCCCC1 | inconclusive [inhibitor, full curve] | –
38 | C=CCSc1nnc(-c2cc(C(C)(C)C)nn2Cc2ccc(F)cc2)n1C | active: 13.1 µM | –
39 | Cc1cccc(CNC(=O)CCCn2nc(C)c3c(C)n(-c4ccccc4)nc3c2=O)c1 | inconclusive [inhibitor, partial curve, poor fit] | –
40 | COc1ccc(CC(=O)N(C)CC(=O)Nc2ccccc2C(F)(F)F)cc1S(=O)(=O)N1CCOCC1 | inconclusive [inhibitor, partial curve, poor fit] | –
41 | Cc1ccc(S(=O)(=O)Oc2ccc(C3C4=C(CCCC4=O)OC4=C3C(=O)CCC4)cc2)cc1 | inconclusive [inhibitor, partial curve, poor fit] | –
42 | Cn1c(=O)c(C#N)c(-c2ccc(F)cc2)c2cc(C(=O)c3cc(Cl)cc(Cl)c3O)cnc21 | inconclusive [inhibitor, full curve] | –
43 | COCCn1c(C)cc(/C=C2\NC(=S)N(C)C2=O)c1C | inconclusive [inhibitor, single point] | –
